# Data reported in paper PMC12136788.
# This is one part of the list.
# T1: UNK ZnF1-6 (called full-length) (human, UniProt Q9C0B0 30-357)
# T1 sequence: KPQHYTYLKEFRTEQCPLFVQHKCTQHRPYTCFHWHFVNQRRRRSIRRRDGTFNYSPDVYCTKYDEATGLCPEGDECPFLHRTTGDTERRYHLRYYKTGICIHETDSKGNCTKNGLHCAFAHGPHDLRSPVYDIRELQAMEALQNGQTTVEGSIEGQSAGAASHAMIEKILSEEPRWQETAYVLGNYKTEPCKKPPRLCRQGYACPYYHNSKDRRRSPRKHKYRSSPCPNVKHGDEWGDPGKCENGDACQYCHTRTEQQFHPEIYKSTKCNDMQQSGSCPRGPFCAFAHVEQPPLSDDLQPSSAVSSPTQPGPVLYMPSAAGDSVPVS
# B1: chrX:120253675:120253799:+|CDS|ENSG00000177485|unk|total|mutant (ssRNA)
# RNA: GGGAGUUCUACAGUCCGACGAUCUAAAAUUGUUCGUGUCCGAUCAGAUUUGCUUGAUGAGUUAAUUAAAUCAGGGCAGUUAUCCGGAGUGAAAUUUACCGCAGAGCUUGGUGUCCCAUUGUCACAGGUUAAAAGCAUCUCAGGCAACAGAGGAUUGAGCAUCA
# B2: chr17:3448806:3449149:-|CDS|ENSG00000141255|control|control|control (ssRNA)
# RNA: GGGAGUUCUACAGUCCGACGAUCAACCGAGCUACUCAGACAAACACAUUCAUCAAAAAUAUCUGGCUGCACAAUGAGAGGGCUAGACAAAAACAGUGCACUACAGACACUUAAGCCCAAUUUUCAACAAAAUCAAUAUAAGAACAACAGAGGAUUGAGCAUCA
# B3: ENSG00000107863:be:win_6401|3pUTR|ENSG00000107863|bound_else_gene|NA|bound_elsewhere_windowed (ssRNA)
# RNA: GGGAGUUCUACAGUCCGACGAUCCUUUUAAUACAGUUUUUGAGUUUUGUGUGACUUGAAUUUUUAAUCUUUCUGUAAAAUACGUAACUUAAAUGAACAUAUUAAAUGUGUAUCUUUUCUUCAGAUACCAGAUUUGAUAUAAUGCAACAGAGGAUUGAGCAUCA
# B4: chr10:24583932:24584033:-|3pUTR|ENSG00000107863|unk|FALSE|bound_elsewhere (ssRNA)
# RNA: GGGAGUUCUACAGUCCGACGAUCAACAAAAGUGCCUCAUCAUAAAAAUACAGUUGGUUUUUAGGGUGCCAUAUUGUUAAAAUUAGAUAACUUACUUACAUUGAAUAAACGAAUGCGUUUUAUUGGUAACAGAUAUCAUUACAUCAACAGAGGAUUGAGCAUCA
# B5: chr7:36452941:36453042:+|3pUTR|ENSG00000011426|msi1|total|mutant (ssRNA)
# RNA: GGGAGUUCUACAGUCCGACGAUCGUCUUGAAGCAGCAACGUCUUUCAGGGGUUGGAGACAGAAACCCAUUCUCCAAUCUCAGCCGUUUUUUCGAAAGGCUGUGAUCAUUUAUUGAUCGUGAUAUGACUUGUUACCCGGGUACUCAACAGAGGAUUGAGCAUCA
# B6: ENSG00000198589:be:win_8501|CDS_3pUTR|ENSG00000198589|bound_else_gene|NA|bound_elsewhere_windowed (ssRNA)
# RNA: GGGAGUUCUACAGUCCGACGAUCUUGUGCUAUUUUACAACGACUUUAACCGGUGGCAUCAUGAAUACCAAACCCGCUACUGAUGGUGACAGCUGUACAUCAACUCUGCCCCUAGGAUGAGCAGAAGUACCUGGAGCAUCAUUCCAACAGAGGAUUGAGCAUCA
# B7: chr5:103087900:103088172:-|CDS|ENSG00000145723|control|control|control (ssRNA)
# RNA: GGGAGUUCUACAGUCCGACGAUCAAGGAUCGUGAACUAUUAGAAUAUAGAAAUACGAAAAUCUCUCCAUUGAUAGACGAUCAUAGUUCUCUUGAAAAGCAGACUUUCAGUCUGUUGGACUCUUCAAACCAGGUUCUUGAAUACCAACAGAGGAUUGAGCAUCA
# B8: ENSG00000136451:be:win_3601|3pUTR|ENSG00000136451|bound_else_gene|NA|bound_elsewhere_windowed (ssRNA)
# RNA: GGGAGUUCUACAGUCCGACGAUCCCUGGAUUGGGAGGCACAGUGGCCACAUUUGGAGGAAGUUCACAUUUCCUGGCAUGCAGACCCAAAACUGGGUUCUGGCUCUGCCUGCUGGGAUCUGUUAUCUCUGGUGGGCUGGCAGUCCAACAGAGGAUUGAGCAUCA
# B9: chr1:151048051:151048152:+|CDS|ENSG00000143443|unk|FALSE|unique (ssRNA)
# RNA: GGGAGUUCUACAGUCCGACGAUCGACCGCCUGGCUGGACCAGCGGCUGCCGAGCUCUUGGCCGCCACGGUGUCCACCGGCUUUAGCCGGUCGUCCGCCAUUAACGAGGAGGAUGGGUCUUCAGAAGAGGGGGUUGUGAUUAAUCAACAGAGGAUUGAGCAUCA
# B10: chr14:23097777:23097878:+|CDS|ENSG00000179933|msi1|FALSE|unique (ssRNA)
# RNA: GGGAGUUCUACAGUCCGACGAUCGAUGAAGUGUAUUCUUCACUGGUUUGCCAAUUGGUCAGGUCCCCAGCGUGAACGUUUCCUAGAGGACCUGGUAGCUAAGGCAGUGCCAGAAAAAUUACAACCACUGCUGGAUAGUCUGGACAACAGAGGAUUGAGCAUCA
# B11: ENSG00000090470:stop:overlap|stop_codon|ENSG00000090470|stop_codon|NA|stop_codon (ssRNA)
# RNA: GGGAGUUCUACAGUCCGACGAUCGAUGGGUCCUUCCCCCGCUCCCCAGCAACGACAUCUGGGCAACUGCUGUUAAGCUGCAUUAGUAAAGAUGCUCCAGGAGUGUGGUCCAGCCAGCGCUCUUUCCAGCUGUAAAUAUUAGCGCAACAGAGGAUUGAGCAUCA
# B12: chr1:223774945:223775046:+|3pUTR|ENSG00000162909|msi1|FALSE|unique (ssRNA)
# RNA: GGGAGUUCUACAGUCCGACGAUCAAAUACACUUUGUAUCUGGACCUCAAAAUUAUGGGAACAUUUACUUAAACGGAUGAUCAUAGCUGAAAAUAAUGAUACUGUCAAUUUGAGAUAGCAGAAGUUUCACACAUCAAAGUAAAACAACAGAGGAUUGAGCAUCA
# B13: chr13:100668578:100668794:-|CDS|ENSG00000125247|control|control|control (ssRNA)
# RNA: GGGAGUUCUACAGUCCGACGAUCCACUGAUUUGGAUCACAUUCUUCCAUCUUCUGUUCUUCCUCCAUUCUGGGCUAAGUUAGUAGUGGGAUCGGUUGCCAUUGUGUGUUUUGCACGCAGCUAUGAUGGAGACUUUGUCUUUGACAACAGAGGAUUGAGCAUCA
# B14: ENSG00000107863:be:win_3751|CDS|ENSG00000107863|bound_else_gene|NA|bound_elsewhere_windowed (ssRNA)
# RNA: GGGAGUUCUACAGUCCGACGAUCGAUCCUCUAGAUCGUCUGAAAACAUUAAAAAGACUAAUUCACGAUUUGCCUGAACAUCAUUAUGAAACACUUAAGUUCCUUUCAGCUCAUCUGAAGACAGUGGCAGAAAAUUCAGAAAAACAACAGAGGAUUGAGCAUCA
# B15: ENSG00000008256:stop:overlap|stop_codon|ENSG00000008256|stop_codon|NA|stop_codon (ssRNA)
# RNA: GGGAGUUCUACAGUCCGACGAUCGCAGAGAUCCCUUCUAUGACAUGUUGGCAACGAGGAAACGAAGGAUUGCCAAUAAAAAAUAGCUUUCCUGGCUAAAAGACCCAGGUAAAAGACCCAACCCCAGCAGAAAGACACCGCGGGCAACAGAGGAUUGAGCAUCA
# B16: chr1:23854467:23854568:-|CDS|ENSG00000179163|unk|FALSE|unique (ssRNA)
# RNA: GGGAGUUCUACAGUCCGACGAUCAAGUCAAGUGGUUUUACUCCUCAUGACCAAAUAUUCUUUCCCUCCUUAGGAUGAGGUGGUAGUAAAUGACCGAUGGGGUCAGAACUGUUCCUGUCACCAUGGAGGAUACUAUAACUGUGACAACAGAGGAUUGAGCAUCA
# B17: ENSG00000198589:be:win_3301|CDS|ENSG00000198589|bound_else_gene|NA|bound_elsewhere_windowed (ssRNA)
# RNA: GGGAGUUCUACAGUCCGACGAUCAUAGUAGAGGAAGAGGAAGAUGAUGAUUAUGUGGAACUGAAAGUAGAAGGCAGUCCUACUGAGGAAGCUAAUCUACCCACAGAGCUCCAAGAUAACAGUUUGUCUCCAGCUGCAUCUGAACAACAGAGGAUUGAGCAUCA
# B18: chr6:132588675:132589686:-|CDS|ENSG00000135569|control|control|control (ssRNA)
# RNA: GGGAGUUCUACAGUCCGACGAUCUGCCAAGACCCUGGGCAUUGCUGUGGGCAUAUACCUCUUGUGCUGGCUGCCCUUCACCAUAGACACGAUGGUCGACAGCCUCCUUCACUUUAUCACACCCCCACUGGUCUUUGACAUCUUCAACAGAGGAUUGAGCAUCA
# B19: chr6:136278143:136278257:-|CDS|ENSG00000029363|unk|total|mutant (ssRNA)
# RNA: GGGAGUUCUACAGUCCGACGAUCACAUCCGGUGAUAUUUGGCCUGGCCUUUCAGCUUAUGAUAACCGUCCCCGAUCACCCCACCGUCCUUCACCUAUUGCUACACCACCCCGUCAGAGUUCAUCUUGCUCUGAUGCUCCCAUGCAACAGAGGAUUGAGCAUCA
# B20: chr5:38481646:38481747:-|CDS|ENSG00000113594|unk|FALSE|unique (ssRNA)
# RNA: GGGAGUUCUACAGUCCGACGAUCCAGACCUCAGGCCAAUGUAAAUACAUGGAAUUUAGUGUCUCCAGACUCUCCUAGAUCCAUAGACAGCAACAGUGAGAUUGUCUCAUUUGGAAGUCCAUGCUCCAUUAAUUCCCGACAAUUCAACAGAGGAUUGAGCAUCA
# B21: ENSG00000009954:stop:overlap|stop_codon|ENSG00000009954|stop_codon|NA|stop_codon (ssRNA)
# RNA: GGGAGUUCUACAGUCCGACGAUCAUGAAGGGGACAGUGAGCCAGAGGCCGUUGGACAGUCCAGGGGACGAAGACAGAAGAAGUAGAGAGGCAGGGCCGUGGUGACAGUAUCAGUGAGUGCCAUACAGAAUUGUGUAUUCACCACAACAGAGGAUUGAGCAUCA
# B22: chr17:18931026:18931127:+|3pUTR|ENSG00000141127|msi1|FALSE|unique (ssRNA)
# RNA: GGGAGUUCUACAGUCCGACGAUCGAUACCUGCAAUUGAAAAGCCGAAAAGAUUAUACUGUCAAGUCCAGUAAAUGACAUUUUUAGAGAUGCUUUUGUAGACAAGCAUAUGGAAUAUGUGAUUGUAUUUAUUUUCUGCAACUAACAACAGAGGAUUGAGCAUCA
# Molecular target: T1, UNK ZnF1-6 (called full-length)
# Assay: nsRBNS (natural sequence RNA bind-n-seq); RBNS binding buffer (assumed for nsRBNS): 25 mM Tris pH 7.5, 150 mM KCl, 3 mM MgCl2, 0.01% Triton X-100, 500 ug/ml BSA, 20 U/ml SUPERase-In, 4 C; UNK is unkempt and MSI1 is Musashi-1; names of the RNAs are library labels; protein concentration not given here; high values mean tight binding
row,Binder,binding signal [enrichment R]
1,B1,0.434
2,B2,0.578
3,B3,0.346
4,B4,1.06
5,B5,0.651
6,B6,0.558
7,B7,1.49
8,B8,0.833
9,B9,0.756
10,B10,0.498
11,B11,0.737
12,B12,0.322
13,B13,0.56
14,B14,0.346
15,B15,0.599
16,B16,0.502
17,B17,0.786
18,B18,0.967
19,B19,0.726
20,B20,0.536
21,B21,0.396
22,B22,0.544
